Data on 22 molecules can be found in PMC12136788.

T1: UNK ZnF1-3 (human, UniProt Q9C0B0 31-174)
T1 sequence: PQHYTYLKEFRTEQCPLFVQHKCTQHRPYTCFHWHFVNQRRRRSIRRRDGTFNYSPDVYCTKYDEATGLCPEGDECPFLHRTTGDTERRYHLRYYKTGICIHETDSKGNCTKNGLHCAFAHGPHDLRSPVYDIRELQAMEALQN

B1: chr8:24049560:24049561:+_ENSMUSG00000031540_ENSMUST00000044331|mus_hu|FALSE|FALSE (ssRNA)
RNA: GGGAGUUCUACAGUCCGACGAUCACUGCUGACCGAACGGACUGACUGGCUGGGGUGAGACUGAACGGAGGAGAUAGGGCUAUUAUGUUCUGACGCAUGACAGUCUUCAACCAUGGACAUCUGAGGGUCCUCGUCAGCCUGGGUCAACAGAGGAUUGAGCAUCA
B2: chr2:198351390:198351391:-_ENSG00000144381_ENST00000345042|hu_hu|hu_hu_hu_mus_False|8_78 (ssRNA)
RNA: GGGAGUUCUACAGUCCGACGAUCUCAUUCCCACCCUCCACAGAAAGGCUGCUUCUGUUCUCAUCUGUGGUGACACAGCGCUACAGUCCUGAUGCUCACAGAACAGUAGAGAUGCCUCAGUGAUUUAUUAAGUUGAAAGGACACCAACAGAGGAUUGAGCAUCA
B3: chr20:9438074:9438075:+_ENSG00000101333_ENST00000334005|hu_mus|FALSE|FALSE (ssRNA)
RNA: GGGAGUUCUACAGUCCGACGAUCUUUGUGAUCCGUUGUCAGGGUCUGAAUUUUAAUUUCUGUUUCUUUUUUUAUUUCAAGACAAUUACUUCCCCCCUUCUUCUUCAUCGCCUUCUCUAGGAUUUUCUCAUGAGUCGACUUCUCCAACAGAGGAUUGAGCAUCA
B4: chr7:75932113:75932114:+_ENSG00000106211_ENST00000248553|hu_hu|hu_hu_hu_mus_False|1_28 (ssRNA)
RNA: GGGAGUUCUACAGUCCGACGAUCCUGCGACCACUCAUCGGGCAACCGGGGCACCCCGAAAGCUUGAUCGAAGAGGCGGCUGUGUGCAGGGUACCAGUCCCGGAAUGCCCAGCUGGGCGGGCUCCGCAGCAGCGAGAGGACGCGCAACAGAGGAUUGAGCAUCA
B5: chr11:46405157:46405158:+_ENSG00000110492_ENST00000395566|hu_hu|hu_hu_hu_mus_False|68_98 (ssRNA)
RNA: GGGAGUUCUACAGUCCGACGAUCCCCUCCCCACUUUGGCUGGGGAGUGUGGGCGUGAGAGGACAGGAUGAUUGAUUAGAGCUGACAGGAAGACAAAAGGCACUGGUGGGUUAUAUCUUGGGCCUGUGGGAGAGGAGGGCUCCGCAACAGAGGAUUGAGCAUCA
B6: chr8:72619762:72619763:-_ENSMUSG00000002341_ENSMUST00000002412|mus_mus|FALSE|FALSE (ssRNA)
RNA: GGGAGUUCUACAGUCCGACGAUCCAGGAGGAUUGAGACUUCAAGGACAUCUUUCUACAAUAGUGAGUUCGAGGCCAGCCUAGUUUGGGGGUUGGAGGUGUUGGAAUUGGGAGGGAGGAAGAAGAAAGGGGAAAAAAAAAGAAACAACAGAGGAUUGAGCAUCA
B7: chr17:61655871:61655872:+_ENSG00000136485_ENST00000310827|hu_mus|motif|central (ssRNA)
RNA: GGGAGUUCUACAGUCCGACGAUCGGUAGGGUACGGGUGGUCAAAGGUGUUUCGGCAAAUAAACUCUGAACUCUCCUCAUCGGAACCAACAAGCUGAACCUUGUUGUUGUACUCUUCCACGAAGCUGCCCAGCGCCAGGCGAAACAACAGAGGAUUGAGCAUCA
B8: chr19:46159329:46159330:+_ENSMUSG00000015176_ENSMUST00000165017|mus_mus|FALSE|FALSE (ssRNA)
RNA: GGGAGUUCUACAGUCCGACGAUCUACAACAGUCAAGUUGUUGCAAAAUGUCUGUCAGAAAAGCUUACUUCGAAAUUAAAACUAAAAGUACUGUAAACAUGUAGCAGUAACAGCUACCAAGAACAAAACAAAGACAGCUGCAUGCAACAGAGGAUUGAGCAUCA
B9: chr9:80412558:80412559:-_ENSG00000156052_ENST00000286548|hu_mus|FALSE|FALSE (ssRNA)
RNA: GGGAGUUCUACAGUCCGACGAUCAGUGGGGACUCGAACUCUAAGCACGUCUUGUUGUGUAGGCAGAUAGGAAGGGUCGGCUACACGGUCCAAGUCAUUCAGAUAGUAUUUGGUAGAGUCAGAUAACUGAUAUUCCCGUCGUCUCAACAGAGGAUUGAGCAUCA
B10: chr3:63791606:63791607:+_ENSMUSG00000027823_ENSMUST00000029405|mus_hu|FALSE|FALSE (ssRNA)
RNA: GGGAGUUCUACAGUCCGACGAUCAAGCAAAACAACUUCUUCCUUCUGAAGGCCCCUGAAUAAUGAACAUGUAUUAUCCACACUAAUGUUGAAAACUCCAUCUUCUCUGACACUUUUUUUGUGCACAGUACCUCCAAAUACCUUCAACAGAGGAUUGAGCAUCA
B11: chr22:24237240:24237241:+_ENSG00000240972_ENST00000215754|hu_mus|FALSE|FALSE (ssRNA)
RNA: GGGAGUUCUACAGUCCGACGAUCGACUCAAGCGAAGGUGGAACCGUUCCAGCCCACGUUGGCAGCGUUCAUGUCGUAAUAGUUGAUGUAGACCCGGUCCGGGCUGAUGUGCAGGCGAUCGGACAGCAGGCCACACAGCAGCUUCAACAGAGGAUUGAGCAUCA
B12: chr14:89307221:89307222:+_ENSG00000165533_ENST00000346301|hu_mus|hu_hu_hu_mus_False|28_78 (ssRNA)
RNA: GGGAGUUCUACAGUCCGACGAUCUCCUGUUUGGUUAGUGCCAGGGAGCUUCAAAGACGUUCCAGGGCGUGGGACCUGAGCAAUAGCAUUUUCAUCCAGGAUCAUUUCUGCAAUUCCUUCCUGGUCCACAUCAAUUUCAUCUAUCAACAGAGGAUUGAGCAUCA
B13: chr3:95061978:95061979:-_ENSMUSG00000015711_ENSMUST00000015855|mus_hu|FALSE|FALSE (ssRNA)
RNA: GGGAGUUCUACAGUCCGACGAUCGCGUUCCAGGACUUCACAGAUCGUUGUUUGGAGUGCCACAUGGGGACAGAAAAUAGCCAACUGCCGCACUGGCUCAUUGUGAGUGUUGAAAAAGAUAGUCAUGGCAACCAGGACAUCAUACAACAGAGGAUUGAGCAUCA
B14: chr4:83347727:83347728:-_ENSG00000152795_ENST00000602300|hu_mus|motif|central (ssRNA)
RNA: GGGAGUUCUACAGUCCGACGAUCCCAGUAUAAUCAUAGCCGCCAUAGCCACUAUAGUUCUGAUCACCACCAUAGGCACGGUUAUAAUUUCCAUAUCCUUGAUCAUAAUAGUUAUUAAAUCCUUGGUUCCAGUUUUGGCCCUGACAACAGAGGAUUGAGCAUCA
B15: chr16:33771563:33771564:+_ENSMUSG00000075254_ENSMUST00000152782|mus_mus|FALSE|FALSE (ssRNA)
RNA: GGGAGUUCUACAGUCCGACGAUCAGACUUAGAGUGGAUAUAAGUAUAAAAAAUAACCAAAUUCUUACAAAUAACACAUUGCUACUACAGUACUGAAUAAUUAUUGGAGGUGACAUUAUAAUACAACUUUAAAUAACAUUCUCACAACAGAGGAUUGAGCAUCA
B16: chr7:141445308:141445309:+_ENSG00000106028_ENST00000265304|hu_hu|hu_hu_hu_mus_False|68_68 (ssRNA)
RNA: GGGAGUUCUACAGUCCGACGAUCUAUGAUUGUUGUUGCUUGCCGCCUCACAUUGUUUUUAUCCAUGUAUUCACCAUAGUCCACUUUCCCUUCCACAAAUAUACGAGCCCCCUUUUUCACAUACUGAUAUGCCACAUCUCUGAGCAACAGAGGAUUGAGCAUCA
B17: 5801301_5805119_1971_3pUTR_ENSG00000099219_ENST00000339450|human|control|control (ssRNA)
RNA: GGGAGUUCUACAGUCCGACGAUCGCUCUUGGCAAGGUAGAUGAAGUUAAUAAAAUAGGACGAGAGAAUCAUUGUACAGCCAGCCAAAAUGGAUGCCAGCACAACAUCAGGUGGGAUUUCAGAACCACUUCUCCCGAGGAUAGGCAACAGAGGAUUGAGCAUCA
B18: chr4:148551591:148551592:-_ENSMUSG00000063077_ENSMUST00000060537|mus_hu|mus_mus_mus_hu_False|58_68 (ssRNA)
RNA: GGGAGUUCUACAGUCCGACGAUCACCUGACAAAAUUAAAUAUCCCUGUAAAUUAGACAAUAAGCAGCAGGUAACAAAGUCUAUGCUUUGGAAUAUGUGCCAGGAAAAGUCAUCUUGUUUUUAGAUCUCAAGAGACAGUUCACACAACAGAGGAUUGAGCAUCA
B19: 28395116_28395236_4612_CDS_ENSG00000100154_ENST00000397906|human|control|control (ssRNA)
RNA: GGGAGUUCUACAGUCCGACGAUCCUCUUCCUCGGCCGAUGGCAUGGGCCCCCACAGCCACCUGUCCAUCACGGCCGAUGGUAGCUUGGGGUUGCCGAUGACAGCCGCCAUGGAUGUGGAGCUGGAGUAUGUGGGCGGGUUCUUCAACAGAGGAUUGAGCAUCA
B20: chr7:26236612:26236613:-_ENSG00000122566_ENST00000356674|hu_hu|FALSE|FALSE (ssRNA)
RNA: GGGAGUUCUACAGUCCGACGAUCAACAAACAGCUUCUUCACAGUUACAUGAGCCCCUGGUUUUCCAGAUUCCUCUCUUGCUACAGCACGUUUUGGCUCAACUACUCUCCCAUCAAUUGAAUGAGGUCUUGCAGCCAUGGCAGCCAACAGAGGAUUGAGCAUCA
B21: chr18:47247233:47247234:+_ENSMUSG00000042705_ENSMUST00000049388|mus_mus|FALSE|FALSE (ssRNA)
RNA: GGGAGUUCUACAGUCCGACGAUCACGGCCUGCGGCUGCUUCCCUAAUUAAUUACUGUAAUGAGUAAGGUUUCAUACUCUGCUAGGGCACCAUCAUACCUUCUGCCUACAGACCUUCCCUGAUCCCUGAAAGCAAUCUGACAGACAACAGAGGAUUGAGCAUCA
B22: chr12:39763582:39763583:-_ENSG00000139116_ENST00000544797|hu_mus|hu_hu_hu_mus_False|68_88 (ssRNA)
RNA: GGGAGUUCUACAGUCCGACGAUCCUCUAGGAACUGGGCAUUCACUUUAAAAUCUGGAGGGGGCAGCCCAUUUUUAAUCGCUGAGGUCUUUUUCUCAUCAAUACUCUUGAACAGGUGUCUAACAGCACGAGAGAUGAUGCCCUGCAACAGAGGAUUGAGCAUCA

Some of the results follow.

In the experiment the target is T1, UNK ZnF1-3. The experiment in a line: nsRBNS (natural sequence RNA bind-n-seq); RBNS binding buffer (assumed for nsRBNS): 25 mM Tris pH 7.5, 150 mM KCl, 3 mM MgCl2, 0.01% Triton X-100, 500 ug/ml BSA, 20 U/ml SUPERase-In, 4 C; UNK is unkempt and MSI1 is Musashi-1; names of the RNAs are library labels; protein concentration not given here; high values mean tight binding.
As for B1, the binding signal was determined as 0.804 enrichment R.

B2 displayed a binding signal of 1.66 enrichment R.

Molecule B3 gave a binding signal of 0.283 enrichment R.

The molecule B4 returned a binding signal of 0.553 enrichment R.

B5 showed a binding signal of 1.81 enrichment R.

Turning to B6, the binding signal turned out to be 1.9 enrichment R.

With B7, the binding signal stood at 0.965 enrichment R.

On to B8, for which the binding signal amounted to 1.35 enrichment R.

Turning to B9, the binding signal is 0.681 enrichment R.

B10 had a binding signal of 1.31 enrichment R.

In the case of B11, the binding signal turned out to be 0.931 enrichment R.

For B12, the binding signal came out at 0.653 enrichment R.

In turn, B13 yielded a binding signal of 1.23 enrichment R.

In turn, B14 yielded a binding signal of 1.03 enrichment R.

Molecule B15 returned a binding signal of 1.53 enrichment R.

In turn, B16 gave a binding signal of 0.742 enrichment R.

B17 displayed a binding signal of 1.95 enrichment R.

B18 registered a binding signal of 1.08 enrichment R.

B19 showed a binding signal of 0.418 enrichment R.

For B20, the binding signal was found to be 0.929 enrichment R.

With B21, the binding signal worked out at 0.919 enrichment R.

The molecule B22 had a binding signal of 1.61 enrichment R.
